Measured values as given in PubChem BioAssay AID504339 (National Center for Advancing Translational Sciences (NCATS), 2011).
Several values for one entry are separate records, joined by “and”; a condition that tells them apart may be missing. Equal entries are not always repeated. The campaign covered roughly 390,000 compounds. About 17,000 (4.4%) were called active. Inconclusive means that the source gave no clear call. Such entries were picked first, then a sample of the others. Calls follow the shape of the dose curve; as a rule, active = well fitted inhibition curve with a large enough effect; inconclusive = small, poorly fitted or top-dose-only effect; inactive = no such curve, though single readings can be large or run the other way. Potencies beside an inconclusive call are fits to weak or partial responses and may not hold up.

molecular target: Lysine-specific demethylase 4A (Homo sapiens) (UniProt O75164); assay: qHTS Assay for Inhibitors of JMJD2A-Tudor Domain; details: AlphaScreen JMJD2A-Tudor / H3K4me3 peptide binding; activity change, negative = inhibition: at 114 µM (top of the series); also: nearly all actives have a fitted effect of over 50% in size
Sequence of UniProt O75164 (O75164 whole entry, looked up, the tested form may be a part): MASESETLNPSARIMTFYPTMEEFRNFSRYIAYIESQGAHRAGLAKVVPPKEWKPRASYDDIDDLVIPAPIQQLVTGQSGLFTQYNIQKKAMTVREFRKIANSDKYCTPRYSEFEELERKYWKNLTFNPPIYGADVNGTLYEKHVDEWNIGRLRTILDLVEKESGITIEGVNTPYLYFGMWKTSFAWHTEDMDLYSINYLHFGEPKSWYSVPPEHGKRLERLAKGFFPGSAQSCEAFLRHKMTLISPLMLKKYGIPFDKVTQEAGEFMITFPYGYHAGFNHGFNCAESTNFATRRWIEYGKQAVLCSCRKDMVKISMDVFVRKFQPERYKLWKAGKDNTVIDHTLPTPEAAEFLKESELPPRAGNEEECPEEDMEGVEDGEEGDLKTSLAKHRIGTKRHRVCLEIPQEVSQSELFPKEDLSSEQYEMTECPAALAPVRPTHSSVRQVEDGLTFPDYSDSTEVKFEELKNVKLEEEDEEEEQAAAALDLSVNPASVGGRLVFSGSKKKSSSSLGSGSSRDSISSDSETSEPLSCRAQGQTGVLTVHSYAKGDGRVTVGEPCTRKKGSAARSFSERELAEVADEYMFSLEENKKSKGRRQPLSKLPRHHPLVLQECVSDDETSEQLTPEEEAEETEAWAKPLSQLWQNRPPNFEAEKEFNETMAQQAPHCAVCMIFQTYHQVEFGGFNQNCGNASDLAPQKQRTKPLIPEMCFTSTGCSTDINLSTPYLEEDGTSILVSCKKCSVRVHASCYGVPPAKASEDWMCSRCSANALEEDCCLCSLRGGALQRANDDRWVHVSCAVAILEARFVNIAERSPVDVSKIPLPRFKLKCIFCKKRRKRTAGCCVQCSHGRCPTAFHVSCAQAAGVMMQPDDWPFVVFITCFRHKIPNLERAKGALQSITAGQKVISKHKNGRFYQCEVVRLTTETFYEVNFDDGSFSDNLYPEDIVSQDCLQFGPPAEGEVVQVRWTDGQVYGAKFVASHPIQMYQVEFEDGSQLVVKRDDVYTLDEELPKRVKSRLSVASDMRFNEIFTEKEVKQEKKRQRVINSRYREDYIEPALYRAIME
% is scaled to controls: 0 for no effect and ±100 for the full control effect; potency is read from the fitted curve at half-maximal effect; tags tell the direction and shape of the fitted curve.

Potency, active:
Cc1cc(=O)[nH]c(N/N=C/c2ccc(O)c(O)c2)n1 2.82 µM
Fc1ccc(-c2ccc(CNCc3ccccn3)o2)cc1Cl 63.1 µM
CCOc1ccc(N=C/C=C/c2ccccc2)c(O)c1 56.2 µM
C[N+](C)(C)c1ccc(/C=N/Nc2nc(Cl)c(C#N)c(Cl)c2Cl)cc1 31.6 µM
CC(C)C(=O)NC(c1cccs1)c1cc([N+](=O)[O-])c2cccnc2c1O (configuration not stated) 15.8 µM
CCC(C)(C)n1nnnc1C(c1ccc2ncccc2c1)N1CCN(c2ccc(O)cc2)CC1 (configuration not stated) 14.1 µM
CCOc1ccccc1OCCCNCc1ccco1 28.2 µM

Potency, inconclusive:
CC(C)C1Cc2[nH]c(=O)c(C(=O)O)cc2CO1 (configuration not stated) 39.8 µM [inhibitor, single point]
COc1ccccc1Nc1nc(NCC(C)C)nc(N)c1[N+](=O)[O-] 10 µM [inhibitor, partial curve]
CCOC(=O)c1c(C)[nH]c(C(=O)N2CCN(c3ccc(OC)cc3)CC2)c1C 56.2 µM [inhibitor, partial curve]
OC(COc1ccc2ccccc2c1Br)Cn1cnc(-c2ccccc2)c1 (configuration not stated) 44.7 µM [inhibitor, partial curve]
O=C(Cc1cc(=O)[nH][nH]1)N/N=C/C(Cl)=C/c1ccccc1 39.8 µM [inhibitor, partial curve] and 56.2 µM [inhibitor, partial curve]
COc1ccccc1N1CCN(C(=O)c2ccc3c(c2)CCN3S(C)(=O)=O)CC1 14.1 µM [inhibitor, partial curve, poor fit]

Activity change, negative = inhibition, inactive:
Cc1ccc(NC(=O)NNC(=O)c2sccc2-n2cccc2)cc1 -27%
OCC[C@H]1C[C@H](O)[C@@H](O)[C@@]2(CCc3ccccc3O2)O1 -13.4%
NC(=O)Cn1c(=O)n(CCCCCC(=O)NCc2ccccc2Cl)c(=O)c2sccc21 -11.6%
COc1ccc(C2=Nn3c(C)nnc3SC2)cc1 65%
O=C(Oc1ccc(-c2nc(-c3ccccn3)no2)cc1)c1ccccc1 -11%
Cc1ccc2c(=O)cc(C(=O)Nc3c(C(=O)c4ccccc4)oc4ccccc34)oc2c1 -16.3%
CCOc1ccc(NS(=O)(=O)c2ccc3[nH]cc(C(=O)N(C)C4CCCCC4)c(=O)c3c2)cc1 -11.2%
O=S(=O)(/N=C/N1CCOCC1)c1ccc(Cl)cc1 4.05%
CC(=O)N1CCc2cc(S(=O)(=O)NCCC(=O)NCCc3ccc(C)cc3)ccc21 -4.33%
